# According to the supplement of paper PMC11417369:
# The list shows a part of the results.
# System: PfSIP2 AP2 domain 1 (GST-tagged)
# Experiment: gcPBM binding intensity (ln(normalized median fluorescence intensity)); higher = stronger DNA binding
# How it was run: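 An Agilent 4 × 180k array of primer-extended double-stranded 36-bp intergenic genomic probes, with negative controls, was incubated for 1 h with GST-tagged P. falciparum DNA-binding domains expressed in E. coli. Alexa488 anti-GST antibody detected bound protein, scanned at 488 nm. Binding intensity is the highest Masliner-normalised natural-log median intensity across replicate spots of either probe orientation.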
row,Sequence,gcPBM binding intensity (ln)
1,TGAGTTACATACTAATGTACACAACAAAAAAAAAAA [XGTACX_site2390],6.99
2,TTTTTTTGAACATATACACACTCTAAACTTATACAT [CACACA_site3917],6.86
3,AAAGGTTTATATGATACACACATAAGTGATCAGGTT [CACACA_site190],6.75
4,TAATTTATGACACGCGCACACATATATATATAGTAA [CACACA_site4249],7.24
5,AAAAATTATGGACACACACACATATATATATATATT [CACACA_site4717],7.22
6,GGTATACGCAAGTATACACACATATATATATATATA [CACACA_site3240],9.21
7,AATAAAATAAAATACACACATACATACATACAAATG [CACACA_site2438],7.06
8,AAATATAAAAGTATATGTACATATATATATATATAT [XGTACX_site7446],9.54
9,AATAAATAGATATATACACACATATATCTATAATAT [CACACA_site6557],6.92
10,CATATTCCCCCCCACACACACACACCCATACATACC [CACACA_site2303],10.2
11,CGTGTGTCCCCCTTAATCATCCAATCGTTCATTTTG [CACACA_negctrl_site1008],7.57
12,TATATAATGGTAAAAACACACAAATATGAAGATGTT [CACACA_site722],6.77
13,AGAGGATCATAGTTATGTACACATATTTAACATAAA [XGTACX_site7232],6.89
14,TCTTCATTTTTATGTGCATGTAAAATTTTTTTTTTT [TGCATGCA_site963],8.59
15,GACAATAAAAAGAAAAGTACATATATAAATTAACCA [XGTACX_site7858],6.91
16,TTTTTTTCTAATTATGCACACATATCAAAATATTCA [CACACA_site8886],10.3
17,ATATTTATTATATAATGTACAAAAAAAAAAAAAAAA [XGTACX_site629],6.92
18,TTACTTAAATATAAGTGTCCTCAAAAAAAAAAAAAA [XGTACX_site460],6.94
19,AATATAAGTTTATTAGTGCACAGATAAATATATATT [GTGCAC_site9784],9.81
20,ATTTTTTATATTAATTGTACATTGTATATATATATA [XGTACX_site8702],9.05
21,ATGTATGTTTTTTTTTTATTGTTCAAAAAGTTGAAG [CACACA_negctrl_site1276],7.15
22,TTTTTATAAAAATTATTAAAAAAATTATTTATAGCT [CACACA_negctrl_site265],6.63
23,AAATATATTATTATCTTATCAATTAAAAGAATAAAC [CACACA_negctrl_site779],7.07

row,Sequence,gcPBM binding intensity (ln)
1,TAGCGCATAAAAAAAAAAAAATATATACTAATAAAT [GTGCAC_negctrl_site276],6.66
2,TTTTTTTTCAATCTCTATATATTAAGGTTTATATTT [XGTACX_negctrl_site397],6.64
3,ATTCAAATATTAAAAAGTACAAAAAAAAAACAAAAA [XGTACX_site1174],6.98
4,ATATAATTATTGATATGTACATATTTGTTCTAGTTT [XGTACX_site3012],7.02
5,ACAACACTATATTACACATGCATTAAGAGAGTGAAC [TGCATGCA_site124],7.35
6,ACATTAAAATATGATTGTACATTTTATTATATTATA [XGTACX_site912],6.94
7,CTATCATATTTATGCACACAAAAATAATTAATTCGT [CACACA_site2614],7.45
8,ACCTGTTCATATGATCGTACACGTCAGTTTATATGA [XGTACX_site3869],7.13
9,TATTTTGAGAATAAATGTACGAATTTTATATTTAAA [XGTACX_site1336],6.61
10,TAAAATAAAAATTAAAGTACATATGTATATATATAT [XGTACX_site3984],9.06
11,GAGTATTCAAGTATTAGTACATATTATATAATAAAT [XGTACX_site7630],6.98
12,AATCCTTACGGACACACACACACGAATAAATAAAAA [CACACA_site4422],7.36
13,TACAAAATGGGGAACACACACATATATAAATAAATA [CACACA_site7751],7.04
14,ATAATTATTTTAGAAACACACAAATTAGAAAAAACA [CACACA_site3636],7.21
15,AATAGAACTATTACACGTACAGAACATGAATTAGTT [XGTACX_site7518],6.9
16,TTTTTTAATTAGTACAAACACACATATACAGACAAA [CACACA_site2564],7.58
17,TGTTATATATGTAATTGTACACTTATACAAAATTAT [XGTACX_site6350],7.13
18,ATTTAGAATGCGTATACACACATATATAGATTTGCT [CACACA_site626],6.9
19,AAAAAAATTAGACACACACACACATATAAATATGTA [CACACA_site6618],6.92
20,CAAAATATAACATCATCACACACATATACTTTATAT [CACACA_site8292],6.94
21,ATTTAAAAATAAAGAACACACATATGTAAAATATAT [CACACA_site3754],7.26
22,TTATTAATATATAAATGTACATATACAATACATAAA [XGTACX_site5571],7.06
